The supplement of paper PMC3334620
The full ranking holds about 33,000 sequences; the median of “E-score (-0.5 to 0.5)” is about -0.016, and the highest 2% start at about 0.32. The list shows a part of the results.

Molecular target: T1, Stp1 (UniProt B3LFK1)
T1 sequence: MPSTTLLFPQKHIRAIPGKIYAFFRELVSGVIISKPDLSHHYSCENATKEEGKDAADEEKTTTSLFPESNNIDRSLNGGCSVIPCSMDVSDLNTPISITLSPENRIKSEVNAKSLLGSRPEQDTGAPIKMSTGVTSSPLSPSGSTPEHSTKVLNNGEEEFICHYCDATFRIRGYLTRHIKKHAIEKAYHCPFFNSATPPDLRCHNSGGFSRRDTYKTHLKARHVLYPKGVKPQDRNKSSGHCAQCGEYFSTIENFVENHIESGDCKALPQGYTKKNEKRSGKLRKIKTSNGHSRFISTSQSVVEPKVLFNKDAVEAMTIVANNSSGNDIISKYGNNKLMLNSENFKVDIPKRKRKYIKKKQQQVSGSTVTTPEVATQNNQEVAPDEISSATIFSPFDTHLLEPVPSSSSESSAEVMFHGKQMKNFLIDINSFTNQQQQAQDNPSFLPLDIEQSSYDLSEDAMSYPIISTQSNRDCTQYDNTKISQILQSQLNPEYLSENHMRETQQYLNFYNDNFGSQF
Experiment: PBM E-score (8-mer binding enrichment) (E-score (-0.5 to 0.5)); higher = stronger / more preferred TF binding; most listed sequences are background and not binding sites
Details: protein concentration: 200 nM; construct: GST-full length
In short: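 Bound GST-tagged yeast transcription factors, applied at about 100-200 nM to double-stranded universal all-10-mer Agilent arrays, were detected with fluorescent anti-GST. Scans were normalised with masliner. A modified Wilcoxon-Mann-Whitney statistic, the E-score, was assigned to each ungapped eight-base word pooled with its reverse complement by the Universal PBM Analysis Suite.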

Row | Sequence | PBM E-score
1 | ACTCGCCA | 0.0484
2 | ACCGAGCA | -0.0192
3 | AGAGACTG | -0.206
4 | AGTTAGAT | -0.00459
5 | GGAATGCA | -0.0291
6 | CTGGATAC | -0.0367
7 | CTGCTCGC | -0.243
8 | CGCGCGGA | 0.256
9 | CTCGCCTC | 0.00469
10 | CTTAGAAA | 0.0995
11 | GGTTAGAC | -0.0207
12 | AACCTCGG | 0.056
13 | GGGCGAAA | 0.0741
14 | AATAGAAG | 0.0231
15 | CAGAGACC | -0.17
16 | AAGTTCTG | -0.0022
17 | TAGCAGGA | -0.226
18 | ATTCTGCC | 0.237
19 | ACGTAATA | 0.133
20 | GGCCCTTA | -0.0507
21 | CGGTTACG | 0.0349
22 | CAGGGGAG | -0.321
23 | CTCTTCGC | -0.0665
24 | ATTATAGA | 0.00759
25 | CACTTAGG | -0.144

Row | Sequence | PBM E-score
26 | CTACCCAG | -0.32
27 | CCGCATCC | 0.265
28 | TAGCCTGA | -0.156
29 | CTGAAGCA | 0.0186
30 | ACAAAAGG | 0.149
31 | AGGGTTCC | -0.289
32 | ACAATAAC | 0.246
33 | CCGGCGAC | -0.167
34 | GCAACTCA | 0.0174
35 | ACTAGAAC | 0.0839
36 | AGGGGGAT | -0.338
37 | GAATTTTA | 0.2
38 | ATGTGAGG | 0.171
39 | ACTTGCCA | -0.106
40 | CTCATAGC | -0.203
41 | ATTGGGTA | -0.0748
42 | AATCGCAC | -0.113
43 | AACACGAT | 0.0593
44 | CCACAGAA | -0.164
45 | GAAAACGC | 0.119
46 | GGTACATA | 0.00334
47 | GATCGATA | 0.0061
48 | ATTTATTC | 0.279
49 | GGCTACTA | 0.0999
50 | CTCGATGC | -0.157

Row | Sequence | PBM E-score
51 | CATATCTC | -0.0779
52 | GCCGAGAC | -0.0678
53 | GCACTCCA | -0.114
54 | ACTTTCAG | -0.11
55 | CACTCCGC | -0.0759
56 | GGTACGAC | -0.27
57 | CATCCCAA | 0.0348
58 | CAGACAGA | 0.0203
59 | ACGATCAT | -0.0345
60 | CCACTGGG | -0.26
61 | CCTTTGTA | 0.0318
62 | AGGCAATC | 0.114
63 | ACTTTTCA | 0.0644
64 | ACGAATGC | 0.108
65 | GTCGGCAC | 0.172
66 | AGCCCAAT | -0.0513
67 | ATCGCTTG | -0.0502
68 | AAGTACGT | 0.0577
69 | CGGGATCA | -0.263
70 | AGTGGATC | -0.122
71 | ATATGGCG | 0.207
72 | GGTCAAGA | -0.119
73 | CGCGGACC | 0.0907
74 | CCTACTAG | -0.219
75 | CAGGATCA | -0.0277

Row | Sequence | PBM E-score
76 | CAGGGTAA | -0.0539
77 | TATGGAAA | -0.0157
78 | CGCCGAAA | 0.0531
79 | CGGACATC | -0.0908
80 | CACGTGAA | 0.123
81 | AAAATAAC | 0.0333
82 | AGCACACG | 0.0926
83 | GGGGCTAC | -0.161
84 | ACGGTACT | 0.0277
85 | GGATAGAC | -0.0544
86 | CGCAAGAG | -0.00269
87 | ACCTACAT | -0.177
88 | TAATCCTA | 0.0466
89 | AAGCGATC | -0.0218
90 | AAACACAC | 0.204
91 | CACGAACC | -0.0471
92 | AACATGAT | 0.139
93 | AAGAGTGT | -0.139
94 | CAAGAAGA | 0.0362
95 | CTATTCAC | 0.147
96 | AAAACCCG | 0.0801
97 | ACGACATG | -0.0723
98 | TGGTACCA | 0.149
99 | CAGCAATC | 0.0191
100 | GGGTTAGA | -0.257

Row | Sequence | PBM E-score
101 | GATAGGAC | -0.257
102 | CATCAACG | 0.0107
103 | ACATCACT | 0.0413
104 | CTGACAGC | -0.194
105 | GCTGGGGA | -0.386
106 | CTCGCACA | 0.0559
107 | CAAAAACC | 0.204
108 | GCATTACA | 0.0105
109 | CCTTCACG | 0.124
110 | CCCTGCAG | -0.12
111 | CGTGAGAG | -0.246
112 | GGCCAAGA | -0.261
113 | AACTAAGT | 0.0905
114 | GGCTGGAA | -0.168
115 | ATGTGTCC | -0.028
116 | CGTTTTGC | 0.18
117 | CCAAAGTC | -0.132
118 | GGTAGACC | -0.227
119 | GACCGACC | -0.0875
120 | GTGACCGA | -0.0805
121 | CAAAGTGG | -0.159
122 | AGTACGTA | -0.0529
123 | GTTCGTGA | -0.0233
124 | AAGAGGCC | -0.131
125 | AGCGCCCT | 0.319

Row | Sequence | PBM E-score
126 | CACCACTG | -0.103
127 | ATCGACGA | -0.00564
128 | CCGACTAC | 0.00232
129 | CAGGTCCA | -0.0938
130 | CTTGCGCC | 0.251
131 | ACGAAGCG | -0.0376
132 | ATTAAGGA | 0.0308
133 | ATTCTTTG | 0.122
134 | GCTGATGA | -0.00753
135 | GCCATTCA | 0.106
136 | AGCTGCGA | -0.129
137 | ACCCAAAC | 0.0176
138 | CCAGGGAC | -0.191
139 | ATGTCTTC | -0.249
140 | ATCCCCAC | -0.0878
141 | CTAGTGAA | -0.112
142 | CAAACGAG | 0.0114
143 | ATATTGAA | 0.0613
144 | AATCATAG | 0.042
145 | CAACAGCA | 0.0247
146 | ACCTTCGC | -0.027
147 | CAGCGGAG | 0.0266
148 | GACCGGAC | -0.124
149 | CTCTAATC | -0.115
150 | CACGAGTC | -0.227

Row | Sequence | PBM E-score
151 | AAAGCCCG | -0.134
152 | AACAAGAA | 0.208
153 | AGTGGATG | -0.181
154 | ACAGACCC | -0.164
155 | TACCTGAA | 0.00092
156 | GTTCAGAA | 0.0312
157 | AACATTCG | -0.129
158 | AATTACCG | 0.104
159 | ACCTGAGC | -0.133
160 | ACGATTAA | 0.0663
161 | ACTCAGAT | 0.094
162 | AGATGGCA | 0.238
163 | TCCGCGCA | 0.161
164 | AAAGGTGG | -0.0176
165 | ACGGCCTA | 0.119
166 | CGGTGCCA | 0.0766
167 | AACTATCA | 0.13
168 | GTATTACA | 0.0234
169 | CTGCGCGC | 0.269
170 | AAGCCGAG | -0.0198
171 | ACCCGACT | -0.14
172 | GCGAATCC | -0.106
